# In all, about 52,000 compounds went through this assay and about 4,300 (8.3%) were called active. Cut-off read from the data, not from the text of the source: active = survival mostly below about 52% (no sharp cut-off); inactive = mostly above about 56%. The list shows a part of the results.
# Test system: DeltatarO mutant
# Experiment: S. aureus survival, RN4220 and DeltatarO strains – OD600, teichoic acid synthesis inhibitors, primary screen (AID 463173)
# Conditions: S. aureus RN4220 wild type/DeltatarO growth, OD600, 18 h, active compounds read low, screened at 18.75 µg/mL (by protocol)
row,SMILES,survival
1,Cn1c(CNC(=O)CSc2nc(-c3cccc(Cl)c3)nc3cc(=O)[nH]n23)nc2ccccc21,inactive: 120%
2,CON(C)c1nc(Cl)nc(N(C)C)n1,inactive: 108%
3,CCC(Oc1ccccc1)C(=O)Nc1ccc(OCc2cc(=O)n3ccccc3n2)cc1 (centres undefined),inactive: 77%
4,CCOc1ccc(CNC(=O)C2Cc3ccccc3N2C(=O)CC)cc1 (centres undefined),inactive: 71%
5,COC(=O)c1ccccc1NC(=O)c1ccc2c(=O)n3c(nc2c1)CCCCC3,inactive: 102%
6,CCCN1CCN(c2cc3c(cc2F)c(=O)c(S(=O)(=O)c2ccc(Cl)cc2)cn3C)CC1,inactive: 75%
7,Cn1c(=O)n(C)c2cc(N3CCOCC3)c(NC(=O)c3c(F)cccc3F)cc21,inactive: 97%
8,COc1ccc(C(=O)NCC(c2ccc(N(C)C)cc2)N2CCc3ccccc32)cc1 (centres undefined),inactive: 118%
9,Cc1cc(C)c2sc(NC(=O)c3ccc(S(=O)(=O)N4CCOCC4)cc3)nc2c1,inactive: 101%
10,CC(C)C(=O)N1C2CCC1CC(O)(c1ccccc1F)C2 (centres undefined),inactive: 86%
11,COc1cc(OC)c(NC(=O)Nc2c(C)n(C)n(-c3ccccc3)c2=O)cc1Cl,inactive: 89%
12,CCc1cc2c(-c3ccccc3)cc(=O)oc2c2c1OCN(Cc1ccc(F)cc1)C2,inactive: 60%
13,O=C(NC1CC(=O)N(c2cccc(F)c2)C1)C(c1ccccc1)c1ccccc1 (centres undefined),inactive: 74%
14,CCOc1ccc(C2CC(=O)c3c([nH]c(C(=O)OC4CCC(C)CC4)c3C)C2)cc1 (centres undefined),inactive: 87%
15,CCC(=O)Nc1ccc(Cl)cn1,inactive: 96%
16,COc1ccccc1N1CCN(C(=O)CN2C(=O)COc3ccc(S(=O)(=O)N4CCCC4)cc32)CC1,inactive: 108%
17,CCc1cccc(NC(=O)CSc2nc3ccsc3c(=O)n2CC)c1,inactive: 42%
18,Cc1cccc(C=Nc2ccc3[nH]ncc3c2)c1O,inactive: 70%
19,CCc1nc(SCc2cc(=O)c3cc(C)ccc3[nH]2)n[nH]1,inactive: 67%
20,Cc1ccc(CNC(=O)Cn2c(=O)n(Cc3ccccc3)c(=O)c3sc4ccccc4c32)cc1,inactive: 76%
21,Cc1ccc(CN(Cc2cccn2-c2nnc(N3CCCC3=O)s2)C(=O)Nc2ccccc2C(F)(F)F)cc1,inactive: 101%
22,CC(=O)NC1C(=O)N(CCc2ccccc2)c2ccc(C)cc21 (centres undefined),inactive: 81%
23,O=C(CN1C=NS(=O)(=O)c2ccc(C(F)(F)F)cc21)Nc1cccc(C(F)(F)F)c1,inactive: 74%

row,SMILES,survival
1,CCOC(=O)c1cc(NC(=O)c2ccc(Cl)cc2)c(=O)n2c1oc1ccccc12,active: 34%
2,O=C(Cn1ncn2nc(-c3cccs3)cc2c1=O)NCc1ccccc1Cl,inactive: 84%
3,CC(C)c1ccc(NC(=O)c2ccc(Cn3nc(N4CCN(c5ccccc5)CC4)ccc3=O)o2)cc1,inactive: 67%
4,CCc1ccc(N2C(=O)CSC23C(=O)N(Cc2cccc(OC)c2)c2ccccc23)cc1 (centres undefined),inactive: 77%
5,CCn1c(=NC(=O)c2ccc(S(=O)(=O)N3CCCC3)cc2)sc2cc(Br)ccc21,inactive: 60%
6,CCOC(=O)c1c(C)c(-c2ccccc2)n(CC(=O)NC2CCCCCC2)c1C,inactive: 75%
7,Cc1c(C(=O)N(Cc2cccc(F)c2)C2CCS(=O)(=O)C2)oc2cc(Br)ccc12 (centres undefined),inactive: 63%
8,O=c1cc(-c2ccc(F)cc2)nc(SCc2nc(-c3cccc(C(F)(F)F)c3)no2)[nH]1,inactive: 99%
9,COc1ccc(NC(=O)CN2C(=O)C3(SCC(=O)N3c3ccccc3)c3ccccc32)cc1Cl (centres undefined),inactive: 97%
10,CC(C)NC(=O)CC1Sc2ccccc2NC1=O (centres undefined),inactive: 99%
11,COc1ccc(CNC(=O)c2cccc(N3CCCS3(=O)=O)c2)cc1OC,inactive: 89%
12,CCc1c(C)sc2c1CCN(C(=O)Nc1cc(C)ccc1OC)C2c1ccc(F)cc1 (centres undefined),inactive: 144%
13,COc1ccc(-c2c(C)nn3c(N4CCN(c5ccccc5F)CC4)cc(C)nc23)cc1OC,inactive: 69%
14,O=C(C1CC2c3ccccc3C1c1ccccc12)N1CCOCC1 (centres undefined),inactive: 86%
15,CCN1CCN(C(c2ccccc2F)c2c(O)cc(C)n(CCOC)c2=O)CC1 (centres undefined),inactive: 73%
16,N#Cc1ccc(NC2=NS(=O)(=O)c3ccccc32)cc1,inactive: 68%
17,CCC(=O)N1CCc2cc(CNS(=O)(=O)c3ccc(Br)s3)ccc21,active: 47%
18,Cc1ccc(C)c(N2C(=O)N(C)c3ccccc3S2(=O)=O)c1,inactive: 87%
19,COc1ccc(-n2c(C)nc3cc(C(=O)NC4CCCCCC4)ccc32)cc1,inactive: 118%
20,CCCN(CCC)CCNC(=O)c1sc2nc3n(c(=O)c2c1C)CCCCC3,active: 62%
21,CC1CCCN(S(=O)(=O)c2ccc(N3CCCCS3(=O)=O)cc2)C1 (centres undefined),inactive: 74%
22,Cc1nn(-c2ccccc2)c(Cl)c1C1N2CCCN1CC2 (centres undefined),inactive: 109%
23,C=CCc1ccc(OCc2ccc(C(=O)Nc3ccc(NC(C)=O)cc3)o2)c(OC)c1,inactive: 121%

row,SMILES,survival
1,COc1cccc(NC(=O)Cn2cc(C(=O)c3ccc(F)cc3)c(=O)c3cc(OC)ccc32)c1,inactive: 92%
2,O=C(Nc1ccc(NC(=O)C2CCCCC2)nc1)C1CC1,inactive: 95%
3,Cc1cccc(Cn2cnc3c(oc4ccccc43)c2=O)c1,inactive: 89%
4,COc1ccc(-c2cc(OC(=O)c3ccccc3)c3c(C)oc(C)c3c(=O)c2)cc1OC,inactive: 74%
5,COc1cccc(NC(CNS(=O)(=O)c2ccc(Cl)cc2)c2ccccc2)c1 (centres undefined),inactive: 79%
6,CC(C)c1ccc2c(c1)NC(c1ccncc1)=NC(c1cccs1)=N2,inactive: 72%
7,CCc1cccc(NC(=O)C(NS(=O)(=O)c2ccc3nc(C)sc3c2)C(C)C)c1 (centres undefined),inactive: 83%
8,C#CCSc1nc(-c2ccccc2)c2cc(Cl)ccc2n1,inactive: 51%
9,CCOc1ccccc1NC(=O)CCc1c(C)nc2c(c(C)nn2-c2ccccc2)c1C,inactive: 72%
10,Cc1ccc(Cl)cc1N1CCN(C(=O)c2ccc3c(c2)N(Cc2ccccc2F)C(=O)c2ccccc2S3=O)CC1 (centres undefined),inactive: 71%
11,O=C(CCS(=O)(=O)c1cc(Br)cc2c1N(C(=O)C1CC1)CC2)Nc1ccc(F)cc1,inactive: 132%
12,Cc1ccc(CNC(=O)c2sc3nc(-c4ccccc4)cn3c2C)cc1,inactive: 123%
13,CCN(C(=O)Cn1c(=O)nc(-c2ccccc2)c2cc(Cl)ccc21)c1cccc(C)c1,inactive: 79%
14,CCOc1ccc(CCNC(=O)Cn2ncc3c([nH]c4ccccc43)c2=O)cc1OCC,inactive: 101%
15,Cc1cncn1CCc1nc2c3ccccc3nc(SCC(=O)Nc3ccc(F)cc3)n2n1,inactive: 101%
16,CCc1cccc(NC(=O)C2CCC(CNS(=O)(=O)c3ccc4c(c3)CCCC(=O)N4)CC2)c1 (centres undefined),inactive: 93%
17,CC(=O)Nc1nc(C(=O)O)cs1,inactive: 90%
18,OCCN1CCN(C(c2ccc(Cl)cc2Cl)c2sc3nc(-c4ccco4)nn3c2O)CC1 (centres undefined),inactive: 85%
19,CCc1nc2ccc(C(=O)NCc3ccc(SC)cc3)cc2nc1CC,inactive: 69%
20,Clc1ccccc1-c1nnc(-c2ccccc2CNc2ccc(Br)cc2)o1,inactive: 74%
21,CCOc1ccc(-n2c(SCC(=O)Nc3ccc4c(c3)OCCO4)nc3c([nH]c4ccccc43)c2=O)cc1,inactive: 117%
22,CCOc1ccc(CCNC(=O)c2cn(-c3cccc(OC)c3)c(=O)c3ccccc23)cc1,inactive: 74%
23,CCC(C)NC(=O)c1ccc2c(c1)N(Cc1ccccc1F)C(=O)c1ccccc1S2=O (centres undefined),inactive: 64%

row,SMILES,survival
1,Cn1c(=O)oc2cc(S(=O)(=O)NCCC(=O)NCc3ccc(F)cc3)ccc21,inactive: 91%
2,Cc1ccc(F)c(NC(=O)C2CCCCC2C(=O)O)c1 (centres undefined),inactive: 70%
3,COc1cc(S(=O)(=O)N2CCCCC2C)c(OC)cc1Cl (centres undefined),inactive: 114%
4,O=C(NCc1ccc(F)cc1)c1ccc(Cn2c(SCc3ccc(F)cc3)nc3cccnc32)cc1,inactive: 78%
5,CCCN1C(=O)c2[nH]nc(-c3cccc(OC)c3)c2C1c1ccccn1 (centres undefined),inactive: 82%
6,CC(C)Cn1c(=O)c2ccccc2n2c(CCC(=O)NCc3ccc(Cl)cc3)nnc12,inactive: 77%
7,Cn1nnc2c(NCc3ccccc3)ncnc21,active: 32%
8,Cc1cc(C)cc(-n2c(C)nc3cc(C(=O)NCc4ccc(F)cc4)ccc32)c1,inactive: 90%
9,CC(C)c1ccc(NC(=O)CN2C(=O)COc3ccc(S(=O)(=O)N4CCCCC4)cc32)cc1,inactive: 71%
10,Cc1ccc2scc(N3CCc4ccccc4C3)c(=O)c2c1,inactive: 73%
11,Cc1ccc(C)c(N2CCN(C(=O)Cn3ncc4c(=O)oc5ccccc5c43)CC2)c1,inactive: 93%
12,COc1cc(OC)cc(-c2nc3nc(C)c(CCC(=O)Nc4ccc(C)c(C)c4)c(C)n3n2)c1,inactive: 73%
13,Cc1ccc(CNC(=O)N2CCC(CN3CCC(C)CC3)CC2)cc1,inactive: 103%
14,CCN1CCN(Cc2nc3cc(NC(=O)c4cc(OC)c(OC)c(OC)c4)ccc3n2CC)CC1,inactive: 84%
15,COc1ccc(S(=O)(=O)c2cn(CC(=O)Nc3cc(C)ccc3C)c3ccccc3c2=O)cc1,inactive: 86%
16,COc1ccc(S(=O)(=O)n2nc(-c3ccco3)nc2NCc2ccc(N(C)C)cc2)cc1,inactive: 55%
17,COc1ccc(NC(=O)Cn2cnc3sc(C)c(S(=O)(=O)N4CCN(c5ccccc5OC)CC4)c3c2=O)cc1OC,inactive: 67%
18,CCC1CN(C(=O)NCc2ccc(C)cc2)c2cc(Cl)ccc2O1 (centres undefined),inactive: 93%
19,Cc1cc(C)cc(NC(=O)Cn2cc(S(=O)(=O)NC(C)(C)C)c(S(=O)(=O)NC(C)(C)C)c2)c1,inactive: 95%
20,CCOc1ccccc1NC(=O)CSc1nnc2[nH]c(=O)cc(-c3ccccc3)n12,inactive: 98%

# Reference: PubChem BioAssay AID463173 (ICCB-Longwood Screening Facility, Harvard Medical School, 2010)
